According to paper PMC8965563, “PaP1, a Broad-Spectrum Lysin-Derived Cationic Peptide to Treat Polymicrobial Skin Infections” (Frontiers in Microbiology, 2022):

System: P. aeruginosa strain NR-51517 (MDR)
Conditions: ~100-fold more bacteria per wound (controls ~10^8 CFU/g tissue)

## CNC(C)C1CCC(N)C(OC2C(N)CC(N)C(OC3OCC(C)(O)C(NC)C3O)C2O)O1 (centres unmarked) [gentamicin]
0.1% (wt/wt) gentamicin monotherapy in Aquaphor
  bacterial counts vs Aquaphor-treated controls: comparable
1% (wt/wt) gentamicin in Aquaphor
  decrease of bacterial load: 1.3 log10-fold
